Measured values published in the supplement of paper PMC11417369.
± gives the standard deviation of the averaged measurements. The list shows a part of the results.

System: PfAP2-G AP2 domain (GST-tagged)
Experiment: gcPBM binding intensity (ln(normalized median fluorescence intensity)); higher = stronger DNA binding
Summary of the method: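 Binding of GST-tagged P. falciparum DNA-binding domains, expressed in E. coli and used at about 25 μg on average, was carried out for 1 h in 1× PBS containing 1% milk, 0.2 mg/ml BSA, 0.5% salmon testes DNA and 0.03% Triton X-100. The target was an Agilent 4 × 180k array of primer-extended double-stranded 36-bp intergenic genomic probes plus negative controls, read with Alexa488 anti-GST antibody at 488 nm. Binding intensity is the highest Masliner-normalised natural-log median intensity across replicate spots of either probe orientation.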

| Sequence | gcPBM binding intensity (ln) |
| --- | --- |
| CAAAAAAAATTATACACACACACACCGATATATATA [CACACA_site4719] | 10.07 ± 0.057 |
| TTTATATATCAATACATTATGTATTAAGTCTTACAT [TGCATGCA_negctrl_site499] | 9.96 ± 0.13 |
| AGGAACAATATATTTGCACACAAAAAATATATATTT [CACACA_site3316] | 10.03 ± 0.042 |
| TTTTAAAAAAAACAAAAACATTGTCATATGGAAAAT [CACACA_negctrl_site297] | 10.2 ± 0.13 |
| GTATGTTAATTTAATTGTACAAAAAGATACACTGAT [XGTACX_site5710] | 11 ± 0.56 |
| AAATATAAAAAATATACACACATATAAAATCTATAT [CACACA_site7406] | 9.72 ± 0.13 |
| ATTTAATTCTTTTGTTATAAAATTTTAGTATATATA [CACACA_negctrl_site1649] | 9.835 ± 0.064 |
| ATGTTAATCATTAAAAATAAAGTTTAATATAAGAAT [XGTACX_negctrl_site155] | 10 ± 0.18 |
| CAAAACAAGCAAAAATGTACTTGATAAATATTTTCT [XGTACX_site1776] | 10.8 ± 0.54 |
| AACATACCCATATACACACACACATAAATACAGATA [CACACA_site4744] | 10.2 ± 0.24 |
| AAATATTCTTGTTTAATACACACTGTAGTATTATAT [CACACA_site433] | 10.2 ± 0.2 |
| TGTGCAAGATTTTTCTGTACATATATATAAATATAT [XGTACX_site1796] | 10.9 ± 0.67 |
| GAATAAGATAGATATACACACCATTATAAATATAAA [CACACA_site5392] | 9.95 ± 0.18 |
| GCTAAAAGTATATGCACACACATATATATGCACATA [CACACA_site1635] | 10.1 ± 0.14 |
| TTTTGTACTTCATGCGTGCACAGAAATATATTATAT | 11.5 ± 0.93 |
| TAAATACTAATATGTACACACATATAGATATAGATT [CACACA_site7247] | 11.3 ± 1 |
| TTAAATAGATAAACTAAACACACAAAAAAAAAAAAA [CACACA_site8308] | 9.7 ± 0.16 |
| AAAAAGGTTAAGGTAGTGCATAATAAAGAATATTAA | 10.4 ± 0.38 |
| ATTTATATTTGTATTTGTACTTATATTTATATTTAT [XGTACX_site1540] | 11.1 ± 0.73 |
| GCTTTTGTCATGTGCACACACGTATATATTATATAT [CACACA_site6146] | 10.7 ± 0.19 |
| TTTTTTAAGTAATGAAATGATTTTCTTATAGAATAA [GTGCAC_negctrl_site395] | 9.575 ± 0.007 |
| CATTAACATTTTATTACACACAATAATTTATAAGTA [CACACA_site4083] | 9.91 ± 0.042 |
| CTATTATAATATTTTACACACCATGTAAAATATATA [CACACA_site3206] | 9.91 ± 0.13 |

| Sequence | gcPBM binding intensity (ln) |
| --- | --- |
| ATCATTCTTCATTTGTCACACATGATAAAAATATAT [CACACA_site4953] | 10.2 ± 0.23 |
| CTATTTTGGATGTGTACACATATATATATTTATATT [CACACA_site5706] | 11.7 ± 0.85 |
| ATATAAAAAGGAAAAAGTACAAAAAAATGTTTGTGA [XGTACX_site8552] | 11.2 ± 0.74 |
| AAGAAAATATATTCACATGAAGAATTAAAATAAAAC [TGCATGCA_negctrl_site119] | 9.93 ± 0.057 |
| TTTTGTACAAAAATAATGCACACTATATCAAGTTTT [CACACA_site3595] | 10.9 ± 0.77 |
| AAGCATACATCAAGCACACACACACCCACACCCACA [CACACA_site372] | 10.2 ± 0.34 |
| AAATATATCAATATATATATATATATATATATATAT [XGTACX_negctrl_site544] | 9.82 ± 0.67 |
| TAGGCCTTAAATCGTGTGCACTTTTTTTTTTTTTTT | 10.9 ± 0.69 |
| TATGTGCCAAAACACACACACATATATATATATATA [CACACA_site469] | 10.4 ± 0.76 |
| CAAATTATTATTTAAGCACACATGTTTATTTTTTTT [CACACA_site2672] | 9.92 ± 0.13 |
| TTTTTTTTTTTTTTTTTTGGTGAGAGAAGAAAATTC [CACACA_negctrl_site950] | 9.97 ± 0.59 |
| TATGGTAAATACAACACACACACATATGTATTTATA [CACACA_site4666] | 10.18 ± 0.071 |
| ATTTATTTATATAATACACACAAATATCTTAATTAA [CACACA_site3993] | 10.1 ± 0.32 |
| TGGATATAAAACAACGTGCACTTGGTTGATTTTAAA [GTGCAC_site9900] | 10.09 ± 0.092 |
| ACCTGTAAAAATGTTTATATATATATATATATATAT [CACACA_negctrl_site1500] | 10.1 ± 0.55 |
| TTAAGGATTAAGGTGTGTACATATAAATATTATATA [XGTACX_site7532] | 11.4 ± 0.76 |
| CACAGACACGGACACACACACACACCCATATATATA [CACACA_site4354] | 11.2 ± 0.79 |
| ATACAAGAATTAAACACACACAAAATATAAATTCTT [CACACA_site3005] | 9.61 ± 0.49 |
| AGCAACCTGAAAAAATTACTCTTTCTTAAACAAATT [XGTACX_negctrl_site266] | 9.785 ± 0.078 |
| AAAAAAAAAAAAAATTGTACATAATAAAAATATGGA [XGTACX_site3189] | 11 ± 0.64 |
| TGTTTATTCTTTAAATATTATTCAAATACTACAAGT [CACACA_negctrl_site746] | 10.2 ± 0.44 |
| GGATTGATAAGTGGTACACACATATAGATTATAGAT [CACACA_site7367] | 11.6 ± 1.1 |
| CGGCACATTATATATACACACATATAAATAAATACA [CACACA_site4477] | 9.95 ± 0.13 |

| Sequence | gcPBM binding intensity (ln) |
| --- | --- |
| TATATATATAAGTGCACACTGAACCAAGAAAATTAT [CACACA_site3008] | 10.4 ± 0.28 |
| CGTATGCACAAATTATGTACTTATATATATATATAT [XGTACX_site2348] | 11.3 ± 0.91 |
| AAAAAAAAAAAACATACACACAAATAAATACATACA [CACACA_site6073] | 10 ± 0.18 |
| TAAATATATATATGTGTGCACTTCTTCATTTTAATA [GTGCAC_site9537] | 10.4 ± 0.3 |
| AATATTAAATGAAAAAGTACAAACAGTCCTATATTA [XGTACX_site1926] | 11.3 ± 0.8 |
| ATTTATATAAAGAATGTACACACAGAAATGCACCCA [CACACA_site8715] | 11.3 ± 0.78 |
| CATATTTTTATAAATTGTACGTATATTATATATATA [XGTACX_site1816] | 11.5 ± 0.79 |
| GCATTGTCCATGCGCACACACTACTAGAATAATATG [CACACA_site5932] | 10.8 ± 0.4 |
| AAACCGTGGGAGCACACACACACACCGACACATATA [CACACA_site4338] | 10.5 ± 0.37 |
| GTTTTTTATAATTGTAGTACAAGAAGATATTTTTAT [XGTACX_site5443] | 11.5 ± 0.86 |
| TGCAATTGTAAAGGCGCACACATATATATATATATA [CACACA_site4894] | 10.3 ± 0.29 |
| ATATATATATATATATGTACATATTTCTCCATTTTT [XGTACX_site2869] | 11.3 ± 0.79 |
| CCATCTAAACACAACTCGAGTTGGATGTGTGAACTT [XGTACX_negctrl_site83] | 10.1 ± 0.25 |
| TCCATTTATAAATTAGCATGCAATCTATGTCTGATA [TGCATGCA_site1045] | 9.64 ± 0.13 |
| ATCAAAAGAAAACACACACACATACAGATATATATA [CACACA_site5974] | 9.8 ± 0.057 |
| AATTAATGGGTACATACACACATATATACCTACATA [CACACA_site4572] | 11.3 ± 0.93 |
| GATATATACTCCATCACACACCAAAAAGAAAAAAGA [CACACA_site7242] | 10.2 ± 0.46 |
| ATATATCAATATAAAAGTACAAACAAAAAATAATCA [XGTACX_site7559] | 11.3 ± 1 |
| TAAATATTTTTATGGGTGCGTTCTTTAGCGCAATTT | 10.2 ± 0.19 |
| TATATATATAATGTTTGTACATATTAAATATATATG [XGTACX_site407] | 11 ± 0.57 |
| AGGTATTTTCTTGTGACACACATATATATATATATT [CACACA_site2220] | 10.23 ± 0.071 |
| TAATTAAAATTATCTACACACCTTTATAAATATATA [CACACA_site3928] | 9.68 ± 0.028 |
| AAAAAAAGTTGATACTGTACTCGTGCATTATGAATA [XGTACX_site5558] | 11.4 ± 1 |

| Sequence | gcPBM binding intensity (ln) |
| --- | --- |
| CTTATTAAAATTATTTGTACACAATATGTAAAAGTA [XGTACX_site7237] | 11.4 ± 0.6 |
| ATTAATTATTTCAATGCATGTGAACACTATATATAA [TGCATGCA_site600] | 10.2 ± 0.2 |
| TTTTGCAATAATGTTGCACACTAAATAGTCATATAT [CACACA_site7977] | 10.2 ± 0.26 |
| TTTATATTGATATATACACACATATACATCCTATTT [CACACA_site7442] | 9.835 ± 0.064 |
| ATTATTGTTGTTCATGTACACACTATAATAAAAGCA [CACACA_site4168] | 11.4 ± 0.91 |
| TAATTTTTTAGACACACACACATATAAATATAAATA [CACACA_site6195] | 10.3 ± 0.31 |
| AATTGGAAACAACCAAAAAAATTAAAGTTGTATCCT [CACACA_negctrl_site565] | 10.04 ± 0.099 |
| AAAAATAAAATAATATGTACATATATAATATATATA [XGTACX_site4786] | 11.1 ± 0.75 |
| TATTCGAAAATTATTCAAATTATCTAACATATTATT [TGCATGCA_negctrl_site70] | 9.565 ± 0.021 |
| TTCCTTTGTCCTAACTGTACTCAAATTTATTAGTGG [XGTACX_site226] | 11.8 ± 0.75 |
| ATAATATATTTTTGAACACACAATATAGATTTATAT [CACACA_site7857] | 9.895 ± 0.007 |
| TTGTATATTATATGTACACACAATAAGTTAATATAA [CACACA_site909] | 11.5 ± 0.93 |
| TAAATTTTAATATGCACACAAAATGTTATATTAAAA [CACACA_site4366] | 9.98 ± 0.28 |
| CGGCACATTATATATACACACATATAAATATATACA [CACACA_site8086] | 10 ± 0.29 |
| TAAATACAAAAATGTACACACATATATATATTTTTA [CACACA_site3503] | 11.2 ± 0.89 |
| TATATCTTAATATACACACACACATATATATATATA [CACACA_site4968] | 10 ± 0.11 |
| TAAATGAAAACCATTAGTACTTATACTGATAAATGT [XGTACX_site763] | 10.8 ± 0.47 |
| TATATAAATATATATACACACAAAAAAAAAAAAAAA [CACACA_site1406] | 9.76 ± 0.33 |
| ACACGTTTATATAAAAAATTAAAATTTTTCTTATTT [CACACA_negctrl_site1523] | 9.895 ± 0.007 |
| AGAAGCATACATCAAGCACACACACCCACACCCACA [CACACA_site8014] | 10.3 ± 0.44 |
